A collection of fitness landscapes (doi:10.1016/j.celrep.2020.107928)
Over roughly 81,000 sequences, “one-hybrid fitness for binding NBS DNA” has its median near -0.1; the highest 2% begin near 0.36. The list shows a part of the results.

B1: Caulobacter ParB omega fusion; a variant is named by its letters at X, in order, B8GW30 (parent)
chain: MESVVVGEPGMSEGRRGLGRGLSALLGEVDAAPAQAPGEQLGGSREAPIEILQRNPDQPRRTFREEDLEDLSNSIREKGVLQPILVRPSPDTAGEYQIVAGERAWRAAQRAGLKTVPIMVRELDDLAVLEIGIIENVQRADLNVLEEALSYKVLMEKFERTQENIAQTIGKSXSHVANXMRLLXLPDEVQSYLVSGELTAXHARAIAAAADPVALAKQIIEGGLSVRETEALARKAPNLSAGKSKGGRPPRVKDTDTQALESDLSSVLGLDVSIDHRGSTGTLTITYATLEQLDDLCNRLTRGI

Variants of: B1
Test: one-hybrid fitness for binding NBS DNA (the Noc-binding site; scaled: cognate 1, non-cognate 0); higher = stronger binding
Conditions: with NBS DNA site
Procedure, shortened: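 Pre- and post-selection plasmids were Illumina-sequenced, three replicate libraries were pooled, and any variant with under 10 reads was removed. The libraries were Caulobacter ParB with four specificity codons randomised, selected in E. coli USO through a HIS3 reporter whose site is 19 bp from the promoter. Cells grew 48 hours at 37°C on M9 without histidine, with 0.1 mM IPTG and 5 mM 3-AT. Fitness is the log change in variant-to-wild-type read ratio, rescaled against cognate and non-cognate.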

Variant	one-hybrid fitness for binding NBS DNA
RTFL	≤ 0.2
GERG	≤ 0.2
RLIT	0.23
LSDR	≤ 0.2
TPRF	≤ 0.2
EVKG	≤ 0.2
RLPA	≤ 0.2
TAMQ	≤ 0.2
VTVV	≤ 0.2
YHCR	≤ 0.2
DDCR	≤ 0.2
VKTK	≤ 0.2
TFAA	≤ 0.2
VGYR	≤ 0.2
HCVE	≤ 0.2
SRSQ	≤ 0.2
SVQT	≤ 0.2
VMRG	≤ 0.2
SWHT	≤ 0.2
YQPN	≤ 0.2
VSMF	≤ 0.2
LYNY	≤ 0.2
RRDI	≤ 0.2
GIAR	≤ 0.2
KVQV	≤ 0.2
MRSK	≤ 0.2

Variant	one-hybrid fitness for binding NBS DNA
VYDH	≤ 0.2
RLKQ	≤ 0.2
DTNR	≤ 0.2
AENT	≤ 0.2
TGWI	≤ 0.2
GFLD	≤ 0.2
RRHM	0.294
EPMG	≤ 0.2
SAPH	≤ 0.2
EAMT	≤ 0.2
KSVH	≤ 0.2
MAYL	≤ 0.2
LTKC	≤ 0.2
YLDT	≤ 0.2
QPAR	≤ 0.2
TLMV	≤ 0.2
PNHC	≤ 0.2
RHMF	≤ 0.2
RAVL	≤ 0.2
NWLS	≤ 0.2
SEIG	≤ 0.2
NTDL	≤ 0.2
DDPG	≤ 0.2
IDIG	≤ 0.2
DELT	≤ 0.2
LYNA	≤ 0.2

Variant	one-hybrid fitness for binding NBS DNA
RMDR	≤ 0.2
NSGI	≤ 0.2
VPET	≤ 0.2
PSSK	≤ 0.2
CWTT	≤ 0.2
EQIG	≤ 0.2
HVDD	≤ 0.2
TGSA	≤ 0.2
KTCM	≤ 0.2
MVRY	≤ 0.2
HYFI	≤ 0.2
YGHS	≤ 0.2
AQKG	≤ 0.2
RLFA	≤ 0.2
NVCA	≤ 0.2
CLQC	≤ 0.2
THYF	≤ 0.2
RRKT	0.814
AIYC	≤ 0.2
NYEL	≤ 0.2
IRVD	≤ 0.2
NSTP	≤ 0.2
SSNF	≤ 0.2
RQSQ	≤ 0.2
IGIS	≤ 0.2
VLKS	≤ 0.2

Variant	one-hybrid fitness for binding NBS DNA
GSLW	≤ 0.2
CRCL	≤ 0.2
NTLK	≤ 0.2
AFHE	≤ 0.2
NPTH	≤ 0.2
ACNV	≤ 0.2
KQTK	≤ 0.2
LNRG	≤ 0.2
IPIR	≤ 0.2
MRAG	≤ 0.2
YGYE	≤ 0.2
LMQS	≤ 0.2
DVVS	≤ 0.2
AAAL	≤ 0.2
QTQD	≤ 0.2
DCTV	≤ 0.2
QAEV	≤ 0.2
TWVT	≤ 0.2
MRNC	≤ 0.2
YPGC	≤ 0.2
MERL	≤ 0.2
GKCY	≤ 0.2
PLYL	≤ 0.2
SAGA	≤ 0.2
LSPD	≤ 0.2
IGQG	≤ 0.2

Variant	one-hybrid fitness for binding NBS DNA
FYVG	≤ 0.2
KVGR	≤ 0.2
LLIL	≤ 0.2
HWAG	≤ 0.2
TYEV	≤ 0.2
PCGR	≤ 0.2
SWTF	≤ 0.2
SWLY	≤ 0.2
DELY	≤ 0.2
RCYQ	≤ 0.2
YIAR	≤ 0.2
SPPT	≤ 0.2
NCHG	≤ 0.2
VQSF	≤ 0.2
LVPK	≤ 0.2
EYCL	≤ 0.2
RSPD	≤ 0.2
PPCL	≤ 0.2
PTAD	≤ 0.2
NNPC	≤ 0.2
VATS	≤ 0.2
HSNC	≤ 0.2
GMMF	≤ 0.2
QLPR	0.232
TTAD	≤ 0.2
RLRD	≤ 0.2

Variant	one-hybrid fitness for binding NBS DNA
QKVF	≤ 0.2
YYSN	≤ 0.2
VARQ	≤ 0.2
SDLG	≤ 0.2
RHFR	0.206
NGHF	≤ 0.2
VSFP	≤ 0.2
HHRF	≤ 0.2
QYNQ	≤ 0.2
VENW	≤ 0.2
RTKM	0.303
GVSW	≤ 0.2
GRRH	≤ 0.2
RGKD	≤ 0.2
VKTG	≤ 0.2
PGDF	≤ 0.2
LDLN	≤ 0.2
DRFL	≤ 0.2
LPDS	≤ 0.2
AILF	≤ 0.2
HMTH	≤ 0.2
RFCI	≤ 0.2
VHPM	≤ 0.2
